# In the supplement of paper PMC11417369:
# ± gives the standard deviation of the averaged measurements. The list shows a part of the results.
# Tested on: PfAP2-LT AP2 domain (GST-tagged)
# Assay: gcPBM binding intensity (ln(normalized median fluorescence intensity)); higher = stronger DNA binding
# In short: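 An Agilent 4 × 180k array of primer-extended double-stranded 36-bp intergenic genomic probes, with negative controls, was incubated for 1 h with GST-tagged P. falciparum DNA-binding domains expressed in E. coli. Alexa488 anti-GST antibody detected bound protein, scanned at 488 nm. Binding intensity is the highest Masliner-normalised natural-log median intensity across replicate spots of either probe orientation.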
row,Sequence,gcPBM binding intensity (ln)
1,AATAATATACATATATATATTATATTGTAATTTTGT [TGCATGCA_negctrl_site1],8.64 ± 0.4
2,ACTAGACAAAATATAATGCACACTATTATTTTTATT [CACACA_site2726],8.88 ± 0.42
3,TTGCATTGATCAAACATACACACATGGTTAATAAAA [CACACA_site2084],8.84 ± 0.41
4,TATTCTTATATATATACACACACAAAATATCTACAA [CACACA_site8144],9.11 ± 0.38
5,TATTTCTCACTGTATGGTACAGATATAAATTTTTAT [XGTACX_site8776],8.62 ± 0.32
6,TATATATATATATATGTGCGCATATATTTTTTTGTA [GTGCAC_site9983],9.96 ± 0.18
7,ACAAAATTTACAAAATGTACAAAATATACAAAATAT [XGTACX_site6465],8.88 ± 0.5
8,CACAAATAAATATTCACACATATATGTCTTATATAT [CACACA_site5323],9.05 ± 0.45
9,ATCAAATTTTTGTTATGTACACAATCATTTAATAAA [XGTACX_site810],8.53 ± 0.38
10,ATTACAATAAATTCGTGTACATGATACCGCCGCTAC [XGTACX_site8997],9.05 ± 0.4
11,TAATTATTATTAAATACACACACATACCTCCATGTT [CACACA_site9134],9.51 ± 0.39
12,AAAAAAAAAAAATAGGTGCGTGTTACTTTTGTATGC [GTGCAC_site9524],8.8 ± 0.33
13,TAAATACATAGATGTACACACATTACAGATGTACAT [CACACA_site4692],9.1 ± 0.37
14,ATTTATAAAATTAATGCACACATCAGCATTTATAAA [CACACA_site1025],8.7 ± 0.35
15,ATAAAGCACACCGACACACACATATTTATATTTATA [CACACA_site6620],9.68 ± 0.43
16,TTGTGTTATCCTTTTTTAGATCAACTATTTTTATTC [CACACA_negctrl_site145],8.78 ± 0.5
17,TATAAAATAAAAAATAAATATCTATATATATATATA [TGCATGCA_negctrl_site351],8.97 ± 0.14
18,AAAGGAAAATTAAAAAGTACACATTTGAAAAAAAAA [XGTACX_site2724],8.6 ± 0.78
19,ATAATTTGTAAAAGGAGTACAAAACCATACTTTTTT [XGTACX_site6076],8.68 ± 0.23

row,Sequence,gcPBM binding intensity (ln)
1,ATGTATTTAATAAGAACACACATATATTTAATTTAA [CACACA_site5606],8.77 ± 0.51
2,TTTTTTTTTTTAAGTTCACACATAAATTCGATTTAC [CACACA_site5057],8.61 ± 0.47
3,ACCGTTTTTGTGTAATGTACAAAATTTCTGACAGTG [XGTACX_site4999],8.78 ± 0.4
4,ATAAGAAATGTAACTTGTACATAAGGATATATATTT [XGTACX_site236],8.92 ± 0.45
5,CATTTATATAAATACACACACACAAAAAAAAAAAAA [CACACA_site5459],9.38 ± 0.28
6,TAATAATAAAAAAATAGTACATAAATAAAAATAATA [XGTACX_site4774],8.81 ± 0.51
7,TTTATACATTTATATTGTACTAATTCGATTTTATAT [XGTACX_site5424],8.88 ± 0.47
8,AAAGAAAAAGAAAAAGAAAAATTAGAATATAAAATA [CACACA_negctrl_site792],8.27 ± 0.69
9,AATGATCATATATACACACACACAAAAAAAAAAAAA [CACACA_site4009],9.6 ± 0.45
10,ATATACTATATATAATGTACATATATATTATTATGC [XGTACX_site2957],8.96 ± 0.35
11,ATAAGAAAATCAAAAAGTACTTTTTACAAAGATAAA [XGTACX_site824],8.52 ± 0.57
12,TAGTTTTTTATATATTGTACAAATAATATATTATAT [XGTACX_site2564],8.71 ± 0.35
13,ATTTTATGATATATTTGTACTTAACATTTGGATATA [XGTACX_site5888],8.77 ± 0.41
14,AGTGACACCAAAGGGGTGCAATGAAATTAAAAATAT,8.92 ± 0.58
15,TTTATTCATTTCTAAAAATATTAAAATAGAATGAAT [CACACA_negctrl_site325],8.1 ± 0.26
16,AAACAAAAAATATATACACACTAAACATAAAAAAAA [CACACA_site4185],9.02 ± 0.46
17,TAAAAAAAAATAAATGGTACACAATTAAATGTTTAT [XGTACX_site5255],8.69 ± 0.47
18,AAAAAAATATATATATATATATATATATATTTATAT [XGTACX_negctrl_site86],9.23 ± 0.085
19,GTAATTATTAATAAAACATGCGTATAAAATTTTCTC [TGCATGCA_site50],8.62 ± 0.46

row,Sequence,gcPBM binding intensity (ln)
1,TAAATTCTTTAAAACTTTAAAACAAAAAAAAAAAAA [CACACA_negctrl_site1078],7.96 ± 0.38
2,TCTTTTTTTAATAAAACATGCAATATTATATATGTA [TGCATGCA_site236],8.42 ± 0.48
3,AATTTTAGATTTAGCACACATTTTTTTTTTTTTTTT [CACACA_site6105],8.75 ± 0.54
4,TTTTTAATCTCATATGTATAATATATTTTTATTAAA [XGTACX_negctrl_site236],8.15 ± 0.43
5,TTCAAAGGGAAATTAACACACACATATATATATATA [CACACA_site8777],9.71 ± 0.2
6,TTCAATGCTAATTTATGTACATATGTATATAAAATA [XGTACX_site8335],8.46 ± 0.35
7,AAAATATATATTTGTTGTACAATATTAATTATTAAA [XGTACX_site1612],8.49 ± 0.41
8,TTTATATAAATTTAAGTGCAAAATGAACAAGTGAAA,8.69 ± 0.41
9,CCCAAAAAAAATTTATGTACTTATTAAATATATATA [XGTACX_site6455],8.51 ± 0.26
10,TGCAAAGGTGAAAGAACACACAAAAAAAAAAAAAAA [CACACA_site4024],8.88 ± 0.54
11,CACCATGTTAACAAAGCATGCATCTCTATAGTTTTA [TGCATGCA_site97],8.81 ± 0.38
12,AAAAAAAAAAAAAGAACATGCGACTTTAAGAACTGG [TGCATGCA_site792],8.62 ± 0.46
13,TAAAAAATTATATATTGTACGAATGCATAAAAAAAA [XGTACX_site4606],8.69 ± 0.44
14,CAAATGTGTTCTTCAGGTACAGATACACATTTATGA [XGTACX_site2664],8.73 ± 0.37
15,TATGAAAATAAAATATGTACATATTTTAAATGTTAT [XGTACX_site7352],8.69 ± 0.47
16,CCCTCCCCATGTTTAGTGCAAAAATATTTGAAATTG [GTGCAC_site9873],10.1 ± 0.057
17,TGAATAAATATATATACACACATATCTGTATTTATT [CACACA_site4991],8.98 ± 0.36
18,TATATATATACCAACACACATACATATATATATATA [CACACA_site1795],9.49 ± 0.22
19,AAATTTGGCAGACACACACACACACGCACACGCACA [CACACA_site6423],10.4 ± 0.33
